# Experimental data: US20260265352A1, “STABLE PHARMACEUTICAL FORMULATION COMPRISING ANTI-GREMLIN1 ANTIBODY” (SUZHOU TRANSCENTA THERAPEUTICS CO., LTD., priority 2022, published 2026)
# T1: Human GREM1 (Homo sapiens, UniProt O60565)
# T1 construct: His; purchased ACRO
# T1 sequence (O60565 25-184): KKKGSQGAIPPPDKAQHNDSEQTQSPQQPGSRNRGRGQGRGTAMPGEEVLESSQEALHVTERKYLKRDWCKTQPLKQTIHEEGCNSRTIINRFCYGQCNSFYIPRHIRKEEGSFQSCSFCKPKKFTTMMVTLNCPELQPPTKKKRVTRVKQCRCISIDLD
# Molecular target: T1, Human GREM1
# Assay: Binding affinity to human GREM1 through ELISA
# Conditions: Table 17
# Procedure: A transparent polystyrene culture plate (BEAVER) was coated with a high pH coating buffer containing 0.5 μg/ml hGREM1 (ACRO) and mouse gremlin (R&D) at 100 μl/well at 4° C. overnight. Then, the culture plate was washed once with PBS and 0.1% of Tween 20 (Sigma) on an automatic culture plate washer. 100 μl of a blocking solution consisting of PBS, 1% of BSA, 1% of standard goat serum and 0.50% of Tween 20 (Sigma) was added into each well for incubation at room temperature for 2 hours. Then, 100 μl of an antibody (started with 2 μg/ml and continuously diluted) in an antibody dilution buffer containing PBS, 1% of BSA, 1% of standard goat serum and 0.01% of Tween 20 was added into each well of the culture plate for incubation at room temperature for 1 hour. Then, the culture plate was washed with 200 μl of a solution containing PBS and 0.1% of Tween 20 for three times, and goat anti-mouse IgG-HRP (Abcam) at a ratio of 1:10000 was added at 100 μl/well for incubation at room temperature for 1 hour. Then, the culture plate was washed with a solution containing PBS and 0.1% of Tween 20 for 3 times. Finally, TMB (Pierce) was added into each well at 100 μl/well, and several minutes later, 50 μl of a termination solution was added into each well. The culture plate was read on a Multiscan FC microplate reader (Thermo Scientific) at 450 nM. […]
molecule,measurement,value
"Chimeric 14E3: Chimeric 14E3 (hIgG1) anti-GREM1 antibody (antibody, V domains shown) VH: QIQLVQSGPELKKPGETVKISCKTSGSTFTTYGMAWMKQAPGKGLTWMGWINTLSGEPTYADDFKGRFAFSLKTSANTAYLQINNLKNEDAATYFCAREPMDYWGQGTSVIVSS VL: DVVMTQTPLTLSITIGQPASISCKSSQSLLDSDGKTYLSWLLQRPDQSPKRLISLVSKLDSGVPDRITGSGSGTDFTLKISRVEAEDLGIYYCWQGAHFPLTFGAGTKLELK",EC50 of binding to hGremlin-his,6.8 ng/mL
